Assay results from PubChem BioAssay AID1508623 (National Center for Advancing Translational Sciences (NCATS), 2021).
Among all 48,000 compounds or so, about 450 (0.94%) were called active. Inconclusive results (about 19%) are left out. The call rests on the fitted dose curve; in most records, active means well fitted inhibition curve with a large enough effect; inconclusive means small, poorly fitted or top-dose-only effect; inactive means no such curve, though single readings can be large or run the other way. Some of the results follow.

Test: Primary qHTS for Identification of Small Molecule Inhibitors of Huntingtin Promoter Activity; further: nearly all actives have a fitted effect of over 50% in size
Settings: HEK293 HTT promoter firefly luciferase reporter (activity 0% = vehicle and -100% = no light), 24 h; series mostly up to 57.5 µM; activity change, negative = inhibition: at the top concentration
Procedure, shortened: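 Firefly luciferase signal from promoter-reporter HEK293 cells was scaled between vehicle (0%) and zero RLU (-100%). Compounds were tested at final concentrations of up to 57.5 uM over 24 h at 37 degrees C. PTC124 at 50 uM final served as control inhibitor.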

Activity change, negative = inhibition, inactive:
O=C(CSc1ccc(-c2cccs2)nn1)Nc1ccccc1 9.93%
Cc1cccc(-c2nc(CCNC(=O)COc3ccccc3)cs2)c1 -3.7%
COc1cccc(CNc2nc3ccccc3c3nc(-c4cccc(C)c4)nn23)c1 25.2%
CCN1CCc2nc(N)oc2CC1 6.12%
CC(=O)c1cccc(NC(=O)Nc2c(C)n(C)n(-c3ccccc3)c2=O)c1 -24.9%
COc1ccc(-c2cc(-c3ccccc3)nc(SCC(=O)Nc3ccccc3C)c2C#N)cc1 -12.1%
CCOCCCn1c(SCC(=O)Nc2cc(C)ccc2C)nc2c(oc3ccccc32)c1=O -6.54%
COC(=O)c1ccc(NC(=O)CN2CCCN(Cc3ccc(Cl)cc3)S2(=O)=O)cc1 -22.6%
CCN1CCc2c(sc(NC(=O)c3ccc(S(=O)(=O)N(CCOC)CCOC)cc3)c2C(N)=O)C1 -2.07%
Cc1ccc(-c2nc3cc(NC(=O)c4cc5ccccc5o4)ccc3o2)cc1Cl -14.9% [at 11.5 µM]
CN(C)CCNC(=O)c1ccc(-n2c(-c3ccccc3)cc3c2CCCCC3)cc1 12%
Cc1ccc(Sc2c(C(=O)NCc3cccc(F)c3)[nH]c3ccccc23)cc1 -20.4%
CC(NC(=O)CN1C(=O)COc2ccc(S(=O)(=O)N3CCCCCC3)cc21)c1ccccc1 (configuration not stated) -18%
Cc1c(C(=O)N(C)C)sc2c1c(=O)n(-c1ccc(Cl)c(Cl)c1)c(=O)n2CC(=O)C(C)(C)C 2.26%
COc1ccccc1CNC(=O)CCC(=O)N1CC(C)Sc2ccccc21 (configuration not stated) -34.8%
Cc1cccc(N2CCN(C(=O)CN3C(=O)COc4ccc(S(=O)(=O)N5CCC(C)CC5)cc43)CC2)c1C -15.3%
COc1ccc(C(=O)Nc2cccc(-c3cn4ccsc4n3)c2)c(OC)c1 39.6%
CCc1nn(CC(=O)N2CCC(C)CC2)c(=O)c2cc3occc3n12 -9.28%
CCCN(c1ccc(C(C)C)cc1)S(=O)(=O)c1ccc2c(c1)n(C)c(=O)c(=O)n2C -8.06%
Cc1ccc(-n2nc3c(N4CCC(C(=O)NC5CCC(C)CC5)CC4)nnc(C)c3c2C)cc1 (configuration not stated) -15.7%
O=C(CCCCCCC(=O)Nc1ccc([C@H]2O[C@@H](CSc3nc(-c4ccccc4)c(-c4ccccc4)o3)C[C@@H](c3ccc(CO)cc3)O2)cc1)NO 64.1%
CCC(=O)Oc1cc(C(C)(C)C)cc2cc(-c3nc(-c4ccc(OC)cc4OC)no3)c(=O)oc12 -0.522%
CCOc1ccc(N(CC(=O)Nc2cc(OC)cc(OC)c2)S(=O)(=O)c2c(C)[nH]c(=O)[nH]c2=O)cc1 -17.8% [at 11.5 µM]
O=C(c1cccs1)c1cn(CCOc2ccc(Cl)cc2)c2ccccc12 -33.6%
Cc1ccc(C(=O)c2cn(Cc3ccccc3F)c3cc4c(cc3c2=O)OCCO4)cc1 2.37%
C[N+](C)(C)CCOC(=O)CCC(=O)OCC[N+](C)(C)C -1.04%
COc1cccc(C2c3c(oc4cc(C)cc(C)c4c3=O)C(=O)N2CCc2ccc(OC)c(OC)c2)c1 (configuration not stated) -12.7%
COc1ccccc1CNC(=O)CCC1N=C2c3ccccc3N=C(SCC(=O)Nc3ccc(F)cc3)N2C1=O (configuration not stated) -4.09%
Cc1ccc2c(c1)c1c(c(=O)n(-c3cccc(Cl)c3)c(=O)n1CC(=O)NCCC1=CCCCC1)n2C -6.16%
COc1ccc(CNc2nc(-c3ccccc3)nn2S(=O)(=O)c2ccccc2)cc1 -7.68%
CN(CC(=O)NCc1ccc(Cl)cc1)S(=O)(=O)c1ccc2[nH]c3c(c2c1)CCCC3 -26.6%
O=C(Nc1nnc(-c2cc(Cl)ccc2Cl)o1)c1ccc2c(c1)OCCO2 -11.4%
CCOC(=O)C1CCC(CN(Cc2ccc(OC)cc2)S(=O)(=O)c2ccc(F)c(C(=O)Nc3ccc(C)c(C)c3)c2)CC1 (configuration not stated) -5.01%
CCc1ccc(NS(=O)(=O)c2ccc3oc(=O)c4ncn(CC)c4c3c2)cc1 -28.5%
COc1ccc(-n2c(Cc3ccccc3)nnc2SCc2nc(-c3cccs3)no2)cc1 -29.8%
O=c1cc(CSc2ncn[nH]2)[nH]c2ccc(F)cc12 5.49%
CN(C)C1(CNC(=O)COc2ccc([N+](=O)[O-])cc2)CCCCC1 -14%
CCC1CN(C(=O)N2CCC(C(=O)NCCc3cc(OC)ccc3OC)CC2)c2ccccc2O1 (configuration not stated) 1.91%
CCn1c(CN2CCOCC2)nc2cc(NC(=O)c3ccccc3[N+](=O)[O-])ccc21 6.78%
COc1cccc(-n2cc(C(=O)Nc3cccc(C(F)(F)F)c3)c3ccccc3c2=O)c1 -23.4%
Cc1ccc(NC(=O)N2CCc3cc(S(=O)(=O)N4CCC(C)CC4)ccc32)cc1 -6.09%
CCN(C(=O)Cn1c(=O)n(CCCS(=O)(=O)C2CCCCC2)c(=O)c2ccccc21)c1cccc(C)c1 -2%
CC(=O)Nc1cc(-c2nc3cc(Cl)ccc3o2)ccc1C 36%
CC1CCN(C(=O)Cn2c(=O)n(CCCCCC(=O)NCc3ccccc3Cl)c(=O)c3sccc32)CC1 -2.43%
Cc1cc(Cl)ccc1NC(=O)Cn1nc(C)c2c(C)n(-c3ccccc3)nc2c1=O -18.9%
COCCCNc1nc2c(S(=O)(=O)c3ccccc3)nnn2c2ccc(Cl)cc12 -7.11%
O=C(NCc1cccs1)c1nn(-c2ccccc2Cl)nc1CO 1.43%
CC1=C(C(=O)Nc2ccccc2)C(c2ccccc2C)n2nc(SCC(=O)c3ccc(C)cc3)nc2N1 (configuration not stated) 11%
Cc1[nH]n(-c2ccccc2)c(=O)c1C(c1cc(Cl)ccc1O)c1c(C)[nH]n(-c2ccccc2)c1=O -3.57%
CCOC(=O)c1ccccc1NC(=O)N1CCN(Cc2cc(=O)n3nc(-c4ccccc4)sc3n2)CC1 -4.56%
COC(=O)c1c(-c2cccs2)csc1NC(=O)c1cccc(Cl)c1 53%
COC(=O)c1c(-c2cccs2)csc1NC(=O)c1ccc(Br)cc1 45.8%
Cc1cccc(NC(=O)CSc2nc(-c3cccs3)cc(C(F)(F)F)c2C#N)c1C -14.5%
CCc1ccc(NC(=O)CCS(=O)(=O)c2cc3c(cc2Cl)NC(=O)CO3)cc1 -5.91%
CCN(c1ccccc1)S(=O)(=O)c1cc(Br)cc2c1N(C(=O)C1CC1)CC2 -16.4%
Cc1ccc(-c2cc(C(=O)NCc3cnn(C)c3C)c3ccccc3n2)cc1C 30.2%
Cc1cccc(-c2c3c(=O)n(C)c(=O)n(C)c3c3c(C)nc4ccccc4n23)c1 -9.55% [at 11.5 µM]
